From PubChem BioAssay AID588855 (National Center for Advancing Translational Sciences (NCATS), 2011)
Hit rate of the full screen: of about 410,000 compounds, about 5,000 (1.2%) were called active. The shares of active, inactive and inconclusive entries below differ from those in the screen. The call rests on the fitted dose curve; in most records, active means well fitted inhibition curve with a large enough effect; inconclusive means small, poorly fitted or top-dose-only effect; inactive means no such curve, though single readings can be large or run the other way. Potencies of inconclusive entries are doubtful fits and often do not repeat.

assay: qHTS for Inhibitors of TGF-b; details: HepG2 CAGA-GFP TGF-b/SMAD3 reporter, GFP fluorescence, 18 h, TGF-beta stimulated, 500 pg/mL final; series mostly up to 46.1 µM; activity, negative = inhibition: at the top concentration; further: nearly all actives have a fitted effect of over 65% in size
In short: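 Cell-based qHTS in HEPG2 carrying a CAGA-GFP Smad reporter; compounds added before 500 pg/mL final TGF-beta, 18 h incubation at 37 degrees C, GFP fluorescence quantified per cell by imaging cytometry.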
On the % scale 0 is the no-effect control and ±100 the full control effect; potency means the concentration at half of the fitted maximal effect; tags describe the fitted curve by direction and shape.

Row | Structure (SMILES) | Potency | activity, negative = inhibition
1 | CC1Sc2ccc(S(=O)(=O)N3CCC(C(=O)Nc4ccc(Cl)cc4)CC3)cc2NC1=O (configuration not stated) | active: 20 µM | –
2 | CN1CCC(=NNC(=O)CN(c2ccccc2)S(=O)(=O)c2ccccc2)CC1 | inconclusive: 35.5 µM [inhibitor, partial curve, poor fit] | –
3 | Clc1ccc(C2=Nn3c(nnc3-c3cc(-c4ccccc4)n[nH]3)SC2)cc1 | inconclusive: 12.6 µM [inhibitor, partial curve, poor fit] | –
4 | COc1ccccc1S(=O)(=O)N(C)C[C@H]1OCc2cnnn2CCCC(=O)N([C@@H](C)CO)C[C@@H]1C | – | inactive: -3.43%
5 | O=C(CC1(O)C(=O)N(Cc2ccccc2)c2ccccc21)c1ccc2c(c1)OCO2 (configuration not stated) | – | inactive: -9.47%
6 | COc1ccccc1C1CCCN1Cc1nc(-c2ccc(C)s2)oc1C (configuration not stated) | inconclusive: 2.82 µM [inhibitor, partial curve, poor fit] | –
7 | COCCNC(=O)c1cc(-c2ccc(Cl)c(Cl)c2)on1 | inconclusive: 25.1 µM [inhibitor, single point] | –
8 | Cc1onc(-c2ccccc2)c1-c1ccnn1C(=O)NC(C)C | inconclusive: 2.51 µM [inhibitor, full curve] | –
9 | O=C(Nc1cccc(C(=O)OCc2cc(=O)n3c4c(sc3n2)CCCC4)c1)c1ccccc1 | – | inactive: 14.8%
10 | Cc1cc(N2CCN(C(=O)c3ccco3)CC2)c2ccccc2n1 | – | inactive: 2.79%
11 | Cc1cccc(NC(=O)C(NS(=O)(=O)c2ccc3c(c2)oc(=O)n3C)C(C)C)c1 (configuration not stated) | – | inactive: -23.4%
12 | Cn1c(=O)c2sccc2n2c(CCCC(=O)NCc3ccc(F)cc3)nnc12 | inconclusive: 35.5 µM [inhibitor, single point] | –
13 | O=c1c(S(=O)(=O)c2cccc(Cl)c2)cn(Cc2ccccc2)c2cc(N3CCOCC3)c(F)cc12 | – | inactive: -9.86%
14 | Cc1ccccc1N(C(=O)c1snc(C(N)=O)c1N)C(C(=O)NCc1ccccc1)c1ccc(O)cc1 (configuration not stated) | inconclusive: 35.5 µM [inhibitor, single point] | –
15 | CC(=O)Nc1ccc(S(=O)(=O)N2CCN(CC(O)COc3ccc4ccccc4c3)CC2)cc1 (configuration not stated) | inconclusive: 8.91 µM [inhibitor, partial curve] | –
16 | NCCCn1c(C(=O)c2ccc(Cl)cc2)c2ccc([N+](=O)[O-])cc2[n+]1[O-] | active: 10 µM | –
17 | CCC1CCC2(CC1)NC(=O)N(CC(=O)Nc1cccc(S(=O)(=O)N(C)c3ccccc3)c1)C2=O (configuration not stated) | inconclusive: 15.8 µM [inhibitor, partial curve, poor fit] | –
18 | CN(c1cc(Cl)c2c(c1)OCO2)c1cc2c(c3c1ccn3C)C1CCC2C1 (configuration not stated) | inconclusive: 4.47 µM [inhibitor, full curve, poor fit] | –
19 | NC(=S)N/N=C/c1c[nH]c2ccc(OCc3ccccc3)cc12 | inconclusive: 17.8 µM [inhibitor, single point] | –
20 | O=C(c1ccc(CSc2nc3ccncc3n2Cc2ccccc2)cc1)N1CCCCCC1 | inconclusive: 10 µM [inhibitor, partial curve, poor fit] | –
21 | CC(CNC(=O)C(=O)NC(C)CCc1ccccc1)Cc1ccccc1 (configuration not stated) | – | inactive: 10.2%

Row | Structure (SMILES) | Potency | activity, negative = inhibition
22 | Cc1ccc(Nc2c(-c3ccccn3)nc3cccc(C)n23)cc1 | inconclusive: 17.8 µM [inhibitor, partial curve, poor fit] | –
23 | CN1CCN(NC(=O)c2cc(-c3ccc(Br)s3)nc3ccccc23)CC1 | inconclusive: 10 µM [inhibitor, partial curve] | –
24 | Cc1ccc(N/N=C/c2ccc(N3CCOCC3)cc2)cc1C | – | inactive: -1.93%
25 | O=C(CSc1ncnc2c1nnn2Cc1ccccc1)NC1CCCC1 | inconclusive: 8.91 µM [inhibitor, partial curve, poor fit] | –
26 | CCOC(=O)c1cn(CC)c2ccc(S(=O)(=O)N3CC(C)CC(C)C3)cc2c1=O (configuration not stated) | inconclusive: 2 µM [inhibitor, partial curve, poor fit] | –
27 | CCOC(=O)Cn1nnnc1C(CC)N(Cc1cc2ccc(C)cc2[nH]c1=O)C1CCCC1 (configuration not stated) | inconclusive: 0.251 µM [inhibitor, full curve, poor fit] | –
28 | CCc1cccc(CC)c1NC(=S)N(CCN(C)C)C(C)c1cccnc1 (configuration not stated) | – | inactive: -17.6%
29 | Cc1cc(C)c2c(c1)/C(=N/NC(=O)c1cc(C)oc1C)CCC2 | – | inactive: 0.574%
30 | C[C@H]1CN([C@@H](C)CO)C(=O)c2cc(C3=CCCC3)cnc2O[C@@H]1CN(C)C(=O)c1ccncc1 | – | inactive: 2.92%
31 | CCC/C(=C1/c2ccccc2C(=O)N1c1ccccc1)c1ccc2c(c1)OCCO2 | inconclusive: 4.47 µM [inhibitor, full curve, poor fit] | –
32 | O=C(CCc1ccccc1)N/N=C/c1cc(Br)ccc1O | inconclusive: 35.5 µM [inhibitor, single point] | –
33 | CC1=NN(C(=O)c2ccco2)C(O)(c2ccccc2)C1 (configuration not stated) | inconclusive: 35.5 µM [inhibitor, single point] | –
34 | COc1ccc(CNC(=S)Nc2ccc(F)c(Cl)c2)cc1OC | inconclusive: 35.5 µM [inhibitor, single point] | –
35 | COc1cc2ccccc2cc1C(=O)N1CCN(c2nc3ccc(F)cc3s2)CC1 | inconclusive: 1.12 µM [inhibitor, full curve, poor fit] | –
36 | CCc1ccc(CNCc2c(C(=O)O)n(Cc3ccc(F)cc3Cl)c3cc(OC)ccc23)cc1 | inconclusive: 4.47 µM [inhibitor, single point] | –
37 | COC(=O)Nc1nnc(Cc2ccc(Cl)cc2)s1 | inconclusive: 28.2 µM [inhibitor, single point] | –
38 | CCCc1nc2c3ccccc3ccn2c1Cc1ccccc1C(F)(F)F | inconclusive: 22.4 µM [inhibitor, single point] | –
39 | CCCCn1c(O)c(/C=C/C=C/C=Nc2ccccc2)sc1=S | inconclusive: 35.5 µM [inhibitor, single point] | –
40 | O=C(CN1CCCc2ccccc21)NCCc1ccc(F)cc1 | – | inactive: -20%
41 | CC1CCN(Cc2c(C(=O)N/N=C/c3ccc(C(F)(F)F)cc3)nnn2-c2nonc2N)CC1 | inconclusive: 31.6 µM [inhibitor, single point] | –
42 | CC(=O)Nc1ncc(Cc2cc(Cl)ccc2Cl)s1 | inconclusive: 3.55 µM [inhibitor, partial curve] | –
